Consider 54 sequences from paper PMC7819943, “Rice protein-binding microarrays: a tool to detect cis-acting elements near promoter regions in rice”.

The list shows a part of the results.

This assay concerns the target T1, OsWOX13 (Oryza sativa, UniProt Q5QMM3 1-267).
T1 sequence: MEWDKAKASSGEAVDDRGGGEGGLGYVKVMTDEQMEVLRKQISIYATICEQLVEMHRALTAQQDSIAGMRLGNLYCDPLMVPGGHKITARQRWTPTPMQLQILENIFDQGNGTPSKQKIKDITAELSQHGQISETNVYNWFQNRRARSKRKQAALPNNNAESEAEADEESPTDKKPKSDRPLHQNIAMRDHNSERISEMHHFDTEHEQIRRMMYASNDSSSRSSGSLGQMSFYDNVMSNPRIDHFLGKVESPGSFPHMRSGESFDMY
Put plainly: protein-binding microarray (RPBM); PBS, 2% BSA, 51.3 ng/ul salmon testes DNA, 50 uM zinc acetate, 200 nM TF, 25 C, 1 h; high values mean tight binding. The note with it: protein: recombinant; tags: N-terminal polyhistidine and DsRed monomer fusion (pET32a); label: CyDye5-dUTP incorporated in the synthesized complementary strand; 3' TTTTT single-stranded linker to array surface; dsDNA, one strand shown. A digest of the protocol: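 Ni–NTA purification followed expression in E. coli BL21-CodonPlus of transcription factors fused N-terminally to a polyhistidine tag and DsRed. At 200 nM in PBS with 2% BSA, salmon testes DNA and 50 µM zinc acetate, the protein was incubated for 1 h at 25 °C with a custom Agilent array that had been primer-extended with Cy5-dUTP and blocked with 2% BSA. After washing, the array was read on an Axon 4000B scanner. The binding signal is per-feature fluorescence intensity in arbitrary units.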
Take “ACCGCAATCAATCTCAGGAGCATTTTCTGGCCTAAATAAACGGAGTCACCTAGTGCAG”: the binding signal was 4830 fluorescence intensity (a.u.).
As to “TCTGATTACTAATTGTGGCTGCATATATAGGGTAGGGAGGCGGAGTCACCTAGTGCAG”, the binding signal was 44700 fluorescence intensity (a.u.).
For “ATTATTTATGTTTAAATTATTATGGTGTTAAGGTAGACACCGGAGTCACCTAGTGCAG” the value was 6060 fluorescence intensity (a.u.); for “CCGTAAATTTGAGAAATTTCGCGCGAATTTACACAAACGCCGGAGTCACCTAGTGCAG”, 16700 fluorescence intensity (a.u.).
As for “TTTAATGGCCAAAATGATAGAGGAATAATTGCAAACCTTGCGGAGTCACCTAGTGCAG”, the figure is 19800 fluorescence intensity (a.u.); as for “CGGAAATCTAAGGTGATTATTGCTTAATTAGCGGAATCTGCGGAGTCACCTAGTGCAG”, 32100 fluorescence intensity (a.u.); as for “CCTAAATTTAAGAGGGACGATCGAGGCTAAGCTGTTGCACCGGAGTCACCTAGTGCAG”, 6360 fluorescence intensity (a.u.).
For “AATGTGAAGATTGAATCGCACATTTGTTAGATCGTTGCCTCGGAGTCACCTAGTGCAG” the value was 12200 fluorescence intensity (a.u.); for “TCCTTAATTCGCAAATATACGTGAGATTGCAGTAAAGAAGCGGAGTCACCTAGTGCAG”, 4820 fluorescence intensity (a.u.); for “CTTAATACATGTGATTTTGAGGAAAAGTTAGTAAGAGCTCCGGAGTCACCTAGTGCAG”, 4420 fluorescence intensity (a.u.).
With “TTTTACATGATTGGATGACAAAGCCTATTTCGTTTTGTTGCGGAGTCACCTAGTGCAG”, the binding signal was 53100 fluorescence intensity (a.u.).
On to “ACCAAATATTAATTATGTAGTATATATTTATAGGTAACTACGGAGTCACCTAGTGCAG”, for which the binding signal is 4060 fluorescence intensity (a.u.).
As for “TAAGAAGGTGATTAGAGGATAATCCACGGGAGGTGCTTGCCGGAGTCACCTAGTGCAG”, the figure is 6070 fluorescence intensity (a.u.); as for “GCTTAATTAAGCTATCTAATGGTTGAAAACAACACGTCGTCGGAGTCACCTAGTGCAG”, 38400 fluorescence intensity (a.u.); as for “GCAAATAATTACACGACGCTCGAGCATCCAATGCAGTGCTCGGAGTCACCTAGTGCAG”, 7120 fluorescence intensity (a.u.).
As for “GCTTAATTAACACCCCAGGCGGCCGCAGACCAAACCGACCCGGAGTCACCTAGTGCAG”, the figure is 35400 fluorescence intensity (a.u.).
As to “GAATAACATAATGATGAGGCCCTGTGCGTTCCCTAAGCTTCGGAGTCACCTAGTGCAG”, the binding signal was 3630 fluorescence intensity (a.u.).
“CTGGTGTCTAATTTGTTGCAACAAAATTATTACTACTTCACGGAGTCACCTAGTGCAG”: the binding signal is 9730 fluorescence intensity (a.u.).
As to “CTTTAAATTGTGACATTGTCTTTGCTAGTGGGAAACTGGGCGGAGTCACCTAGTGCAG”, the binding signal is 17800 fluorescence intensity (a.u.).
As for “GCCCCATACATTTCTGATTGCTCCCATACGATTTGGGCGGCGGAGTCACCTAGTGCAG”, the figure is 6160 fluorescence intensity (a.u.); as for “CGGAATTTCTATTATTTCTAAATTGTATACCGGCATGGACCGGAGTCACCTAGTGCAG”, 6210 fluorescence intensity (a.u.); as for “TTCCTCTAATTAACGTGTCAGCGGTCTAGGTCACGTAAGACGGAGTCACCTAGTGCAG”, 9900 fluorescence intensity (a.u.).
Regarding “GTGGTTGATTTGACCTTTTACATTGTACAGATGGTATTGGCGGAGTCACCTAGTGCAG”, the binding signal is 18100 fluorescence intensity (a.u.).
For “CCAATTTAATAAAATAAATTGATACTATAAATATTACAATCGGAGTCACCTAGTGCAG” the value was 9090 fluorescence intensity (a.u.).
With “GTGCTCAATTTTAATTGGTTAAAATTATTTCTAGAGCTCTCGGAGTCACCTAGTGCAG”, the binding signal was 18600 fluorescence intensity (a.u.).
In the case of “TACATGTTATTGATGGTAATGTACACTCGTTGAGTCTTCTCGGAGTCACCTAGTGCAG”, the binding signal was 10100 fluorescence intensity (a.u.).
For “TAATTAATTTTCACTAATTATTACTGCGTTCTTCATATGCCGGAGTCACCTAGTGCAG” the value was 52100 fluorescence intensity (a.u.).
As for “AATGATTACAAGAGGCCATAATGTCAATGTTCTTTGCAGGCGGAGTCACCTAGTGCAG”, the figure is 30500 fluorescence intensity (a.u.); as for “TATAATTACTTTTATCTTTCTAGCCTCTATACATTTACATCGGAGTCACCTAGTGCAG”, 10200 fluorescence intensity (a.u.); as for “GCAATCTTTCATTATCATAATTGGTCGTAGCTTTAATTACCGGAGTCACCTAGTGCAG”, 8430 fluorescence intensity (a.u.).
As for “GCATAACATAAAACAAAATTTCCATTTGTTGGCAACAGCCCGGAGTCACCTAGTGCAG”, the figure is 3430 fluorescence intensity (a.u.); as for “TTGGATTGATCTGTGGCGCTAAATCCGTTCGTCAGGTCTCCGGAGTCACCTAGTGCAG”, 24900 fluorescence intensity (a.u.).
As for “ATCGATAGTGAGACGTTCATGATTGACGAGGATATGTCGGCGGAGTCACCTAGTGCAG”, the binding signal was 22200 fluorescence intensity (a.u.).
As for “AGTTATACTTCTACATCATTAATTTGTTTGACCATACGACCGGAGTCACCTAGTGCAG”, the figure is 3910 fluorescence intensity (a.u.); as for “TAAAATTGAAAATTTGATTGAAATTGGAACGATGTGATGGCGGAGTCACCTAGTGCAG”, 64500 fluorescence intensity (a.u.).
For “AGGTCAATAAAATTGACTGAACTCTTGTCAAAGTTTAGTTCGGAGTCACCTAGTGCAG” the value was 5260 fluorescence intensity (a.u.).
As for “TCTAATCACTAGTCACTAGTCTGTCTGCTGAATTGTTCTCCGGAGTCACCTAGTGCAG”, the figure is 4430 fluorescence intensity (a.u.); as for “TATCATGATTAAAGATGAGTCTTTATATTCCTTAGATAAGCGGAGTCACCTAGTGCAG”, 8610 fluorescence intensity (a.u.).
For “GATTACTAGTACCAATTAGGACATGAATTCCTACACGACACGGAGTCACCTAGTGCAG”, the binding signal was 3610 fluorescence intensity (a.u.).
As for “ATTGGACTAACTGAATGATCAACCGCTTATGGTTTGATGACGGAGTCACCTAGTGCAG”, the figure is 3520 fluorescence intensity (a.u.); as for “ATCAAATAAATTAAACTTTATTTGAATGTTATAATTGTAACGGAGTCACCTAGTGCAG”, 21300 fluorescence intensity (a.u.).
In the case of “ATATATTTCATCTAACAAAATTAGATGAAATATATCGTAGCGGAGTCACCTAGTGCAG”, the binding signal was 4310 fluorescence intensity (a.u.).
With “TGCATGATTTATTTATTTATTGATCCATTAAATTTTACCCCGGAGTCACCTAGTGCAG”, the binding signal was 37700 fluorescence intensity (a.u.).
For “TATCTAATTTAATCAATCCCATGGCTGTGATTGATCAGGACGGAGTCACCTAGTGCAG” the value was 51900 fluorescence intensity (a.u.); for “GATTTAGATTATGTTAATTAACGGATTAGGGTGTTAATTACGGAGTCACCTAGTGCAG”, 38900 fluorescence intensity (a.u.); for “GAGTGGTAAATAATTAATTATTACATATTTGTATAAATCGCGGAGTCACCTAGTGCAG”, 22800 fluorescence intensity (a.u.).
For “GGGCTATAATTAATTGGGAAGATAATATTGATAGAGATATCGGAGTCACCTAGTGCAG” the value was 47400 fluorescence intensity (a.u.); for “TACCTGATACTAAATTGAAGGGGAATTGGCAAGTAGTGCACGGAGTCACCTAGTGCAG”, 19900 fluorescence intensity (a.u.).
As for “GATAAACACAATATACTCAATTTAAATTTTAGCTAACGGCCGGAGTCACCTAGTGCAG”, the figure is 5050 fluorescence intensity (a.u.); as for “CATTAATTATATATACAGGGTTATATAAAACTTAATATCACGGAGTCACCTAGTGCAG”, 32300 fluorescence intensity (a.u.).
“CTCTGACCAATCAAATCCTCTCTATATACTCTAGGAGTACCGGAGTCACCTAGTGCAG”: the binding signal was 4290 fluorescence intensity (a.u.).
As for “ACAATGAGATTGTGTCACTGTCAGTCTGTCACTGATCACTCGGAGTCACCTAGTGCAG”, the figure is 3360 fluorescence intensity (a.u.); as for “TCCACATGCTAATTTGTGGTGTCAGATACCTGAATACTCCCGGAGTCACCTAGTGCAG”, 3970 fluorescence intensity (a.u.).
On to “ATCAATCACTCGTTGGTAATTACTACAAGTCAGATGATATCGGAGTCACCTAGTGCAG”, for which the binding signal was 32000 fluorescence intensity (a.u.).
